# Measured values published in the supplement of paper PMC9446081.
# Screen size: about 39,000 compounds; about 220 (0.56%) showed activity. The list shows a part of the results.
# Tested on: Escherichia coli K-12 BW25113
# Test: relative growth (OD600 normalised to plate interquartile mean) (fraction); higher = less growth inhibition, active = 0.2 or less
# Settings: 50 µM; LB; incubation time: overnight (16-24 h)
# 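Note: static incubation at 37 °C against the wild-type strain, values averaged over two biological replicates.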
row,SMILES,relative growth
1,COc1cc([C@H]2OC[C@](O)(Cc3ccc(O[C@@H]4O[C@H](CO)[C@@H](O)[C@H](O)[C@H]4O)c(OC)c3)[C@@H]2CO)ccc1O,inactive: 1
2,C[C@H]1CCCCO[C@H](CN(C)C(=O)Nc2ccc(F)cc2)[C@@H](C)CN([C@@H](C)CO)C(=O)c2cc(NS(=O)(=O)c3cccs3)ccc2O1,inactive: 0.998
3,C[C@H](CO)N1C[C@H](C)[C@H](CN(C)C(=O)Nc2cccc3ccccc23)Oc2ncc(C#Cc3ccc(C(F)(F)F)cc3)cc2C1=O,inactive: 1.08
4,C[C@@H]1O[C@H](O[C@@H]2[C@H](Oc3c(-c4ccc(O)cc4)oc4cc(O)cc(O)c4c3=O)O[C@H](CO[C@@H]3O[C@H](C)[C@@H](O)[C@H](O)[C@@H]3O)[C@@H](O)[C@@H]2O)[C@@H](O)[C@H](O)[C@@H]1O,inactive: 1.02
5,C[C@@H]1CN([C@@H](C)CO)C(=O)c2cccc(NC(=O)c3cnccn3)c2O[C@@H]1CN(C)Cc1ccc(C(=O)O)cc1,inactive: 0.997
6,COc1ccc(NC(=O)Nc2cccc3c2O[C@@H](CN(C)Cc2ccc(C(=O)Nc4ccccc4N)cc2)[C@H](C)CN([C@@H](C)CO)C3=O)cc1,inactive: 1
7,C[C@H]1CN([C@@H](C)CO)C(=O)Cc2cc(NC(=O)Nc3cccc(C(F)(F)F)c3)ccc2O[C@H]1CN(C)S(=O)(=O)c1ccc(Cl)cc1,inactive: 1.03
8,c1ccn(CCN2CCNCC2)c1,inactive: 1.01
9,O=C(C[C@H]1CC[C@@H]2[C@H](COC[C@H](O)CN2Cc2cc(F)ccc2F)O1)N[C@@H]1CCN(Cc2ccccc2)C1,inactive: 0.997
10,CO[C@@H](CN(C)S(=O)(=O)c1ccc(F)cc1)[C@H](C)CN([C@@H](C)CO)S(=O)(=O)c1cccc(Cl)c1,inactive: 1
11,CC(C)NC(=O)Nc1ccc2c(c1)CC(=O)N([C@@H](C)CO)C[C@H](C)[C@H](CN(C)Cc1ccc(-c3ccccc3)cc1)O2,inactive: 0.979
12,C[C@H](O)C#Cc1cnc2c(c1)C(=O)N([C@H](C)CO)C[C@H](C)[C@H](CN(C)C(=O)CN1CCOCC1)O2,inactive: 0.975
13,C[C@H](CO)N1C[C@H](C)[C@H](CN(C)C(=O)Nc2ccccc2)Oc2ccc(NC(=O)CCCN(C)C)cc2C1=O,inactive: 1.01
14,O=C(N[C@@H]1CC=CC[C@H](CC(=O)N(CCO)Cc2ccccc2)C(=O)NCC(c2ccccc2)OC1=O)OCC1c2ccccc2-c2ccccc21 (some centres not stated),inactive: 0.995
15,O=C(C[C@H]1CC[C@@H]2[C@H](COC[C@H](O)CN2S(=O)(=O)c2ccccc2)O1)N[C@H]1CCN(Cc2ccccc2)C1,inactive: 1.01
16,C[C@H]1CN([C@@H](C)CO)C(=O)c2c(c3ccccc3n2C)-c2ccccc2CO[C@H]1CN(C)Cc1ccccc1C(F)(F)F,inactive: 1.01
17,COc1ccc(CN(C)C[C@H]2OCCCC[C@@H](C)Oc3ccc(NC(=O)Nc4ccc(OC)cc4)cc3C(=O)N([C@@H](C)CO)C[C@H]2C)cc1,inactive: 0.958
18,Cc1ccc(S(=O)(=O)N(C)C[C@H]2Oc3ccc(NS(=O)(=O)c4cn(C)cn4)cc3CC(=O)N([C@@H](C)CO)C[C@@H]2C)cc1,inactive: 0.976
19,C[C@@H]1CN([C@@H](C)CO)C(=O)c2cc(NC(=O)C3CCCCC3)ccc2O[C@@H]1CN(C)Cc1ccc(Oc2ccccc2)cc1,inactive: 0.991

row,SMILES,relative growth
1,C[C@H]1CN([C@@H](C)CO)C(=O)CCCn2nncc2CO[C@H]1CN(C)S(=O)(=O)c1ccc(-c2ccccc2)cc1,inactive: 1.05
2,CO[C@@H]1CN(C)C(=O)c2ccc(NC(=O)C3CCOCC3)cc2OC[C@@H](C)N(C(=O)C2CCOCC2)C[C@H]1C,inactive: 1
3,COc1ccccc1S(=O)(=O)N(C)C[C@H]1Oc2cc(C#CCC(C)C)ccc2S(=O)(=O)N([C@@H](C)CO)C[C@H]1C,inactive: 0.999
4,Nc1nnc([C@H]2CCCO2)o1,inactive: 0.99
5,CN(C)/N=N/c1nc[nH]c1C(N)=O,inactive: 0.913
6,COc1ccc(NC(=O)Nc2ccc3c(c2)C(=O)N([C@H](C)CO)C[C@H](C)[C@@H](CN(C)Cc2ccc(C(F)(F)F)cc2)OCCCC[C@H](C)O3)cc1,inactive: 0.938
7,Cc1ccc(=O)n(-c2ccccc2)c1,inactive: 0.973
8,Cc1c(-c2ccnn2C)cc(C(=O)NCc2ccc(S(C)(=O)=O)cn2)c(=O)n1-c1cccc(C(F)(F)F)c1,inactive: 0.987
9,COc1ccc(CN(C)C[C@@H]2OCCCC[C@H](C)Oc3ccc(NC(=O)Nc4cccc5ccccc45)cc3C(=O)N([C@H](C)CO)C[C@H]2C)cc1,inactive: 0.974
10,C[C@H]1CN([C@@H](C)CO)C(=O)c2c(c3ccccc3n2C)-c2ccccc2CO[C@@H]1CN(C)C(=O)Nc1cccc(C(F)(F)F)c1,inactive: 1.03
11,Cc1noc(C)c1S(=O)(=O)N(C)C[C@@H]1Oc2ccc(NC(=O)C3CCCCC3)cc2CC(=O)N([C@@H](C)CO)C[C@@H]1C,inactive: 1.02
12,C=CC[C@H](CC(=O)NCCO)C(=O)NC[C@@H](OC(=O)[C@@H](CC=C)CC(=O)OC(C)(C)C)c1ccccc1,inactive: 0.974
13,CC(C)n1c(=S)[nH]c2ccccc21,inactive: 1.01
14,Cc1ccc(S(=O)(=O)N(C)C[C@@H]2OCCCC[C@@H](C)Oc3ccc(NC(=O)Nc4ccc5c(c4)OCO5)cc3C(=O)N([C@@H](C)CO)C[C@H]2C)cc1,inactive: 1.03
15,COc1ccc(S(=O)(=O)N(C)C[C@@H]2Oc3ccc(NC(=O)NC(C)C)cc3C(=O)N([C@@H](C)CO)C[C@@H]2C)cc1,inactive: 0.996
16,COc1ccc(CCN(C)CCCC(C#N)(c2ccc(OC)c(OC)c2)C(C)C)cc1OC.Cl (configuration not stated),inactive: 1.04
17,C[C@H](CO)N1C[C@H](C)[C@H](CN(C)C(=O)Nc2ccccc2)Oc2ccc(NS(=O)(=O)c3cn(C)cn3)cc2C1=O,inactive: 0.972
18,C[C@@H]1CN([C@@H](C)CO)C(=O)c2cc(NC(=O)c3ccccc3)ccc2O[C@@H](C)CCCCO[C@H]1CN(C)S(=O)(=O)c1ccc(Cl)cc1,inactive: 1.01
